{
  "source": "PubChem BioAssay AID624296",
  "about": "(National Center for Advancing Translational Sciences (NCATS), 2012)",
  "note": "Out of some 350,000 compounds screened, about 9,900 (2.8%) were called active. This list was built around the results that the source calls inconclusive (neither active nor inactive); the mix of calls is not that of the screen. Calls follow the shape of the dose curve; as a rule, active = well fitted activation curve with a large enough effect; inconclusive = small, poorly fitted or top-dose-only effect; inactive = no such curve, though single readings can be large or run the other way. Potencies of inconclusive entries are left out as doubtful fits. Potency is read from the fitted curve at half-maximal effect; tags tell the direction and shape of the fitted curve.",
  "data": [
    {"assay": "A quantitative high throughput screen for small molecules that induce DNA re-replication in MCF 10a normal breast cells; also: nearly all actives have a fitted effect of over 50% in size.", "conditions": "MCF 10A DNA re-replication, Hoechst nuclear intensity, 48 h; series mostly up to 46.1 µM", "values": [
      {"smiles": "CC1(CCC(=O)N2CCCC(N3CCN(c4cccc(C(F)(F)F)c4)CC3)C2)CC1", "note": "(stereo not given)", "Potency": "inconclusive [activator, partial curve, poor fit]"},
      {"smiles": "Nn1c(Cc2cccc3ccccc23)nnc1SCc1ccccc1Cl", "Potency": "inactive"},
      {"smiles": "COc1cc2cc(C)nc(Cc3cccc4ccccc34)c2cc1OC", "Potency": "active: 13 µM"},
      {"smiles": "CC1Cn2c(nnc2-c2ccc(F)cc2)S1", "note": "(stereo not given)", "Potency": "inactive"},
      {"smiles": "CCCCNC(=O)C1CCC(CNS(=O)(=O)c2c(C)cc(C)cc2C)CC1", "note": "(stereo not given)", "Potency": "inactive"},
      {"smiles": "COc1ccc(/C=C/C(=O)c2ccc([N+](=O)[O-])o2)cc1OC", "Potency": "inconclusive [activator, full curve, poor fit]"},
      {"smiles": "c1cc(CN2CCCCC2)cc(OCCCNc2nc3ccccc3s2)c1", "Potency": "inconclusive [activator, partial curve, poor fit]"},
      {"smiles": "COc1ccc(C(=O)Nc2cccc(NC(=O)c3cccs3)c2)cc1OC", "Potency": "inconclusive [activator, single point]"},
      {"smiles": "CCOc1cc(CNCC(O)c2ccccc2)cc(Cl)c1OC", "note": "(stereo not given)", "Potency": "inconclusive [activator, single point]"},
      {"smiles": "COc1ccc(OC)c(C(=O)/C=C/c2cccnc2)c1", "Potency": "active: 11.6 µM"},
      {"smiles": "Cc1ccn(CC(C)C(=O)O)n1", "note": "(stereo not given)", "Potency": "inactive"},
      {"smiles": "CC(C)C(=O)Nc1ccc(Nc2ccccc2)cc1", "Potency": "inactive"},
      {"smiles": "COc1ccc(C2/C=C\\CC(NC(=O)OCC3c4ccccc4-c4ccccc43)CC(=O)N2Cc2ccccc2F)cc1", "note": "(stereo not given)", "Potency": "inactive"},
      {"smiles": "CC(=O)Nc1cccc(Oc2ncnc3scc(-c4ccccc4)c23)c1", "Potency": "inconclusive [activator, single point]"},
      {"smiles": "COc1ccc(S(=O)(=O)Nc2ccc(S(=O)(=O)N3CCCCC3)cc2)cc1C", "Potency": "inconclusive [activator, partial curve]"},
      {"smiles": "CCc1ccc(/C([O-])=C(/C(=S)NCCN2CCOCC2)[n+]2ccccc2)cc1", "Potency": "active: 6.51 µM"},
      {"smiles": "O=C1NCCC/C1=N/Nc1cc(F)ccc1F", "Potency": "inactive"},
      {"smiles": "CCOc1ccc(OCC(=O)N2CCC3(CC2)CC(=O)c2ccccc2O3)cc1", "Potency": "inconclusive [activator, partial curve, poor fit]"},
      {"smiles": "COc1cc(NC(=O)CSc2nc3c(c(=O)[nH]2)CCCC3)cc(OC)c1OC", "Potency": "inactive"},
      {"smiles": "COc1cc(S(=O)(=O)NCCCn2ccnc2)ccc1Cl", "Potency": "inconclusive [activator, partial curve, poor fit]"},
      {"smiles": "COC(=O)CSc1nc2ccc(C)cc2cc1C#N", "Potency": "inconclusive [activator, partial curve, poor fit]"},
      {"smiles": "O=c1cc(C23CC4CC(CC(C4)C2)C3)[nH][nH]1", "Potency": "inconclusive [activator, partial curve]"},
      {"smiles": "O=c1c2c([N+](=O)[O-])cc([N+](=O)[O-])cc2sn1Cc1ccccc1", "Potency": "inconclusive [activator, single point]"},
      {"smiles": "COC(=O)Cc1c(C)[nH]n(-c2cc(Cl)cc(Cl)c2)c1=O", "Potency": "inconclusive [activator, partial curve, poor fit]"},
      {"smiles": "Cc1ccc(S(=O)(=O)N2CCCC(c3nc4c(nnn4Cc4ccc5c(c4)OCCO5)c(=O)[nH]3)C2)cc1", "note": "(stereo not given)", "Potency": "inconclusive [activator, full curve]"},
      {"smiles": "COc1cc(/C=N\\NC(=O)c2ccc(Cn3cc(Br)c([N+](=O)[O-])n3)o2)cc(OC)c1O", "Potency": "inconclusive [activator, partial curve, poor fit]"},
      {"smiles": "CN(C1CCCCC1)S(=O)(=O)c1ccc2[nH]c(=O)oc2c1", "Potency": "inconclusive [activator, single point]"},
      {"smiles": "COc1cc(/C=C/c2nc3ccccc3c(=O)[nH]2)cc(OC)c1OC", "Potency": "active: 18.4 µM"},
      {"smiles": "Cc1oc(C(C)(C)C)cc1-c1cc(NC(=O)c2ccc([N+](=O)[O-])cc2)n[nH]1", "Potency": "inconclusive [activator, single point]"},
      {"smiles": "CCCn1nc(NC(=O)c2cccs2)c2cc3cc(OC)ccc3nc21", "Potency": "inconclusive [activator, single point]"},
      {"smiles": "CN(C)S(=O)(=O)c1cc(NC(=O)CNCCN2CCOCC2)ccc1Cl", "Potency": "inactive"},
      {"smiles": "O=C(CNC(=O)c1cccs1)N/N=C/c1ccc(O)cc1O", "Potency": "inconclusive [activator, partial curve, poor fit]"},
      {"smiles": "CC(=O)Nc1ccc(S(=O)(=O)NCCNc2ccccc2[N+](=O)[O-])cc1", "Potency": "inconclusive [activator, single point]"},
      {"smiles": "O=C(CSc1nnnn1-c1ccccc1)Nc1ccc(N2CCOCC2)c(Cl)c1", "Potency": "inactive"},
      {"smiles": "N#CC1=C(N)Oc2ccc3ccc(O)cc3c2C1c1ccsc1", "note": "(stereo not given)", "Potency": "inconclusive [activator, partial curve, poor fit]"},
      {"smiles": "CC(C)(C)c1nc(SCC(=O)N2CC(=O)Nc3ccccc32)c2ccccc2n1", "Potency": "inconclusive [activator, partial curve, poor fit]"},
      {"smiles": "CCN(CC)S(=O)(=O)c1cccc(-c2nnc(SCc3ncc(-c4ccccc4)o3)n2C)c1", "Potency": "inactive"},
      {"smiles": "CC(=O)Nc1nc(C)c(-c2csc(Nc3ccccn3)n2)s1", "Potency": "inconclusive [activator, partial curve, poor fit]"},
      {"smiles": "Cc1ccc(C(=O)Nc2nnc(NC(=S)Nc3ccccc3)s2)cc1", "Potency": "inconclusive [activator, single point]"},
      {"smiles": "CCc1cc2c(nc1CC)CCN(CC/C(C)=N/O[C@@H](C)c1cc(-c3c(C)cc(C)cc3C)no1)C2", "Potency": "inconclusive [activator, single point]"},
      {"smiles": "CN=C1S/C(=C\\c2ccc(N3CCCC3)c(F)c2)C(=O)N1C", "Potency": "active: 23.1 µM"},
      {"smiles": "COc1ccc(CCNC(=O)c2cc([N+](=O)[O-])cc([N+](=O)[O-])c2)cc1OC", "Potency": "inactive"},
      {"smiles": "CCn1cc(CN2CCCC(C(=O)c3ccc(-c4ccccc4)cc3)C2)cn1", "note": "(stereo not given)", "Potency": "inconclusive [activator, single point]"},
      {"smiles": "O=C(NCCCN1CCOCC1)c1ccc2c(c1)N(Cc1ccccc1)CCS2", "Potency": "inconclusive [activator, partial curve, poor fit]"},
      {"smiles": "Cc1ccc(OCC(=O)Nc2ccc3c(c2)OCCO3)cc1C", "Potency": "inactive"},
      {"smiles": "COc1ccc2[nH]c(=O)c(CNc3ccccc3)cc2c1", "Potency": "inconclusive [activator, partial curve, poor fit]"},
      {"smiles": "COc1ccc(C(=O)NCc2ccc3c(c2)cc(C)n3C)cc1OC", "Potency": "inconclusive [activator, single point]"},
      {"smiles": "Cc1cc(/C=N/N2CCN(C)CC2)c(C)n1-c1ccccc1F", "Potency": "inactive"},
      {"smiles": "Cc1ccc(NC(=O)CN(C)C(=O)c2cccnc2Nc2cccc(C(F)(F)F)c2)cc1", "Potency": "inconclusive [activator, partial curve, poor fit]"},
      {"smiles": "c1ccc(Nc2nc(-c3ccccc3)ns2)cc1", "Potency": "inactive"},
      {"smiles": "O=C(CSc1ccc(-c2ccc3c(c2)OCO3)nn1)Nc1nccs1", "Potency": "inconclusive [activator, partial curve, poor fit]"},
      {"smiles": "Nc1ncnc2c1ncn2C1OC(CO)C(O)C1N", "note": "(stereo not given)", "Potency": "inconclusive [activator, single point]"},
      {"smiles": "COc1ccc(-c2nc(SC(C)C(=O)Nc3ccc(NC(C)=O)cc3)n[nH]2)cc1", "note": "(stereo not given)", "Potency": "inactive"},
      {"smiles": "COc1cc(C(=O)OC2CC3CCC2(C)C3(C)C)ccc1OC(C)=O", "note": "(stereo not given)", "Potency": "active: 14.6 µM"},
      {"smiles": "Cc1ccc(-c2noc(CSc3nnc(Cc4ccccc4)n3-c3ccc(Cl)cc3)n2)cc1", "Potency": "inconclusive [activator, single point]"},
      {"smiles": "CC(=O)Nc1ccc(S(=O)(=O)NNC(=O)c2cccc([N+](=O)[O-])c2)cc1", "Potency": "inactive"},
      {"smiles": "COC(=O)N/N=C/c1cc([N+](=O)[O-])cc(Br)c1O", "Potency": "inconclusive [activator, single point]"},
      {"smiles": "CCCCc1c(C)nc2ccc(C(=O)OCC)cc2c1Cl", "Potency": "inconclusive [activator, single point]"},
      {"smiles": "Cc1cccc(N2N=C(C(=O)Nc3ccc(Cl)c(S(=O)(=O)N4CCOCC4)c3)CCC2=O)c1", "Potency": "inactive"},
      {"smiles": "Cc1c(C(=O)NC2CCN(Cc3ccccc3)C2)oc2c(Cl)cccc12", "note": "(stereo not given)", "Potency": "active: 16.4 µM"},
      {"smiles": "COC(=O)c1ccc(NC(=O)CSc2nc3ccccc3c(=O)[nH]2)cc1", "Potency": "inconclusive [activator, single point]"},
      {"smiles": "N#CCSc1n[nH]c2nc3c(c(=O)n12)C1(CCCC1)Cc1ccccc1-3", "Potency": "active: 10.3 µM"},
      {"smiles": "CCN(CC)S(=O)(=O)c1cnccc1N1CCN(c2cccc(Cl)c2)CC1", "Potency": "inconclusive [activator, single point]"},
      {"smiles": "CCOC(=O)CCCCC(=O)c1[nH]c(=O)[nH]c1CSc1nc(C)cc(=O)[nH]1", "Potency": "inconclusive [activator, single point]"},
      {"smiles": "CCN1CCN(c2cc(N3CCN(C(=O)c4ccco4)CC3)c3c4c(onc24)-c2ccccc2C3=O)CC1", "Potency": "inconclusive [activator, single point]"},
      {"smiles": "COc1cc(C=O)c(Br)cc1OCc1ccc(C)cc1", "Potency": "active: 9.2 µM"},
      {"smiles": "COc1ccc(C(C#N)N2CCC(c3ccccc3)=N2)cc1OC", "note": "(stereo not given)", "Potency": "inconclusive [activator, single point]"},
      {"smiles": "O=C(c1ccccc1O)N1N=C(c2ccccc2)CC1(O)C(F)(F)F", "note": "(stereo not given)", "Potency": "active: 20.6 µM"},
      {"smiles": "COc1ccc(N2C(=O)c3ccccc3NC2(C)C)cc1", "Potency": "inconclusive [activator, single point]"},
      {"smiles": "Cc1nn(-c2ccccc2)c2[nH]c(=O)c(CNCC3CCCO3)cc12", "note": "(stereo not given)", "Potency": "inconclusive [activator, single point]"}
    ]}
  ]
}
